Some compounds were tested as several samples or in several runs, with calls that do not always agree.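 Cells were grown in 96-well plates and exposed to the test compound at a single concentration for 48 hours; results are reported as percent growth, with values below 10 considered active.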 Not every entry of the source has a single result; some have several. The other results are left out here. There may be further records. These are repeated runs of one drug, at its own concentration, as given; each value is one run. Signs of the kind (2×) say how often a value occurs here.
Key:
ACHN renal = experiment: NCI-60 one-dose screen, 48 h (100 = growth as untreated, 0 = no growth, -100 = all killed); conditions: 2.5 mM
CAKI-1 renal = experiment: as above; conditions: 2.5 mM

For O=c1[nH]cc(F)c(=O)[nH]1, the growth (ACHN renal; runs of 1992) was “active: 7.73 (2×), 2.25, 2.85, -4.06, -14.9 (2×), 7.08, 3.15, 6.19, -15.2, -32.6, 1.18, 7.27, 5.02, 2.37, -16.3, -21.6, -9.49, -23.5, -29.5, -9.2, -24.1, -45.2, -57, 6.88, 5.05, -13.4, 1.22, -13.8, -7.22, -16.9, 8.82, -46, -36.9, -51.4, -7.82, 1.08, 7.13, -30.7, 9.61, -34.6, -27.5, -17.4, 8.23, 0.221, -17.9, 8.45, -39.2, -62.3, -19.4, -29.6, 3.1, 7.09, -15, -2.74, -41.5, -21.3, -12.2 (2×), 1.39, -6.18, -33.1, -1.41, -28.7, -36.5, -32.7, -42, -39.9, -2.24, -18.2, -11.5, -29.2, -0.751, -37.8, -44.4, 3.44, -44, -42.7, -30.8, 2.07, -1.92, 3.67, -53.5, 3.54, -36.2, -15.3, 4.46, 5.76% and inactive: 14.6, 10.3, 11.6, 16.9, 11.2 (2×), 18.8, 33.5, 20.6, 11.7, 24, 16.8, 17.1, 15.4, 13.2 (2×), 22.3, 19.5, 86.4, 26.3, 12.2, 15, 11.9, 17.7, 12.1, 11.3, 16.2, 10.2, 30.3, 10.7, 12.4, 15.6%”, the growth (ACHN renal; runs of 1993) was “active: -12.9, 7.38, 6.41, 9.4, -25.1, -9.7, 2.72, -39.7, 6.3, -11.9, 3.19, 3.7, 7.85, -7.14, -22.1, 6.35, 0.537, -8.45, 8.17, -6.02, 5.37, -17.8, 5.03, -17.6, 1.72, -15.8, 8.47, 3.4% and inactive: 14.8, 20.5, 10, 18.4, 25, 20, 35.2, 14.9, 11.3, 15.1 (2×), 17.6, 22.6, 85.4, 11.7, 85.7, 13.6, 38.7, 29.1, 12.3, 10.7%” and the growth (ACHN renal; runs of 1994) was “active: 5.89, 1.08, -20.5, 3.16, 8.22, -8.58, 7.94, 0.75, -22.6, -13.3, 6.95, 0.865, 4.29, -13.6, -44.2, -1.99, -18.9, 5.75, 1.23, 8.77, 0.146, -0.523, 2.14, -3.47, 0.0859, -6.94% and inactive: 13.8, 14, 10.4, 16.2, 18.3, 11, 14.1, 16.3, 11.3%”. The growth (ACHN renal; runs of 1995) was “active: -0.786, -37, -6.19, 4.81, -13.3, -27.1, 4.85, -17.3, 1.07, -27.4, -34, 9.48, 8.86, 5.34, 7.7, 6.45, -42.2, 8.94, 1.8, 5.09, -4.57, 9.16, 9.24, 0.225, -31.3, -1.51, 9.77, -33.3, -16.3, 4.41% and inactive: 12.4, 21.6, 16.6, 15.8, 18, 25, 10.3, 23.3, 15.3%”, the growth (ACHN renal; runs of 1996) was “inactive: 10.4, 16.3 (2×), 13.4, 14.3 (2×), 11.5, 13.1, 17, 11.7, 12.6, 19, 12.7 (2×), 11.3, 13.6, 14.1, 16.5, 15.4, 11.2, 18.2, 12, 22.1, 12.8, 10.5, 15.9, 11.1, 10.3, 24.4, 26.2% and active: 4.61, 6.15, -3.45, -25.1, 8.59, -30.8, 9.58, 9.95 (2×), 3.07, -29.2, 4.68, -6, 5.37, -25.4, 1.2, -58.1, 7.59, 9.19, -15.9, 4.03, -23.2, -2.79, 1.13, 8.77, -2.9%” and the growth (ACHN renal; runs of 1997) was “inactive: 15.3, 15.5, 16.8, 24.4, 10.5, 11.8 (2×), 20.6, 20, 13.4, 13.3, 20.8, 17, 23.3, 23.2, 13.1% and active: 8.52, -16.1, -28.3, 9.48, -6.6, -7.14, -8.79, 1.25, 5.18, 7.05, 5.73, -0.131, 6, 4.27, -3.42, -14.8, 7.98, 9.36, 8.41, 4.45, 4.51, -1.32, 7.4, 3.41, -3.25, -14.7, -5.04, 3.72, 4.84, 9.33%”. The growth (ACHN renal; runs of 1998) was “active: 6.06, 0.538, 3.12, 1.45, 2.33, 9.64, -8.48, -38.5, -9.36, -13.9, 5.31% and inactive: 15.2, 25.2, 17.9, 15.6, 10, 12, 15.1, 18.3, 13.6, 16.2, 27.5, 21.5%”, the growth (ACHN renal; runs of 1999) was “inactive: 22.9% and active: 1.38, 6.72, -44.2, 6.32, -10.6, -100 (4×), -46.3, 3.36, 0.517, -93.5, -61.4, -81.5%” and the growth (ACHN renal; runs of 2000) was “active: -95.2, -17.6, -78.4, -91.7%”. For the same compound, the growth (CAKI-1 renal; runs of 1991) was “inactive: 19.2, 48.1, 53.2, 13, 18.3, 17.6, 19, 27.9% and active: -3.24, -6.62, 4.75, 6.79, 3.52, -14.4, 1.62, -25.4%”, the growth (CAKI-1 renal; runs of 1992) was “inactive: 28.8, 27, 27.8, 17.2, 15.3, 14.6, 27.4, 41.9, 14.1 (2×), 18.8, 17.1, 38, 20.5 (2×), 15.6, 19, 10.9, 20.3, 13.9, 13.2, 17.9, 27.1, 20, 28.3, 16.8, 12.6, 10.2, 27.3, 76.7, 23.8, 25.7, 38.5, 28, 33, 11.9 (2×), 11, 20.4, 12.5, 18.6% and active: -28.9, 4.21, -4.98, -14.7, -21.3, -5.1, -7.29, -5.74, -22, 6.87, 1.66, -6.97, -8.29, -32.8, -5.73, -8.89, 2.92, -14.1, -55.4, -55.7, 6.04, -15.9, -5.49, -33.1, -0.243, 4.57, -3.2, -20.1, -34.3, -3.31, 8.88, 8.14 (2×), -34.2, -62.5, -64 (2×), 2.96, 8.83, 6.45, 5.94, -62.6, -22.2, -80.2, -70.6, -21.6, -3.26, -4.74, 1.13, -46.8, -10.1, 6.03, -9.84, -5.34%” and the growth (CAKI-1 renal; runs of 1993) was “inactive: 22.7, 21.7, 69.7, 19, 33.7, 22.1, 23.3, 27.7, 14.4, 15, 30, 33.9, 19.8, 18.7, 46.7, 16.9, 90.5, 27.3, 29.2, 14.1, 29.8, 26.2, 13.3, 33.6% and active: 1.39, 6.95, 2.39, 8.86, 8.64, -0.823, 9.68, -12.3, -47.6, -15.3, -2.06, -9.39%”. The growth (CAKI-1 renal; runs of 1994) was “active: 4.1, -22.7, 3.89, -24.6, -21.3, -10.7, 1.44, -15.7, 4.39, -6.64, -17.2, 4.71, -1.46, -35.9, -20.3, -38.5, -48.5, -15.4% and inactive: 20.4, 12.1, 12.8, 25, 29.5, 17.6, 24.6, 26.2, 16.6, 24.8, 30.5%”, the growth (CAKI-1 renal; runs of 1995) was “active: -35, -21.6, -22.1, -23.5, 4.73, -18.9, 3.27, -5.9, -3.04, -26.6, -18.2 (2×), 6.85, -20.1, -42.3, -84.5, -9.74, -22.8, -42, -41.1, -86.6, -41.7, -28.4, 0.608, -47.6, 6.08, 0.654, -3.96, -46, -13.1% and inactive: 25.8, 18.2, 35.7, 21.2, 12, 20, 31.8%” and the growth (CAKI-1 renal; runs of 1996) was “active: -43.3, 6.6, -39.9, -14.6, -34.7, -32.5, -16.5, -17.9, -42.9, -0.771, -28.5 (2×), -17 (2×), -12, -29.8, -40.5, -24.1, -17.4, -41, -50.1, -57.7, -49, -51.8, -57.8, -69, -83.8, -33.5, -25.4, 5.87, -6.02, -2.49, 0.717, -0.382, -16.4, 5.48, -6.7, 9.68, -4.36, 6.41, -33.7, 5.36% and inactive: 13.6, 10.4 (2×), 15.8, 17.6, 18.1, 17.1, 13.1, 30.8, 11, 27.4, 96.1, 22.7, 20, 46.5, 12.9%”.

— PubChem BioAssay (NCI)
